According to PubChem BioAssay (NCATS):
The inconclusive results got no clear call from the source; some entries with a clear call stand among them for comparison. For part of these data: No potency is given beside an inconclusive call; the fits are too rough. Calls of active or inactive are those of the source. Unless noted, the call rests on the fitted dose curve; in most records, active means well fitted curve in the direction sought with a large enough effect; inconclusive means small, poorly fitted or top-dose-only effect, or another doubt; inactive means no such curve, though single readings can be large; an effect the other way counts as inactive or inconclusive.

What was measured:
[1] = molecular target: Tyrosyl-DNA phosphodiesterase 1 (Homo sapiens) (UniProt Q9NUW8); assay: Confirmation Assay for Inhibitors of Tyrosyl-DNA Phosphodiesterase (TDP1) (AID 489007); conditions: recombinant human TDP1 enzymatic activity, dose-response; further: potency means the concentration at half of the fitted maximal effect; nearly all actives have a fitted effect of over 40% in size
Outline: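 Recombinant human Tdp1 (1 nM final), expressed in E. coli, preincubated 15 min with compound. Then 15 nM 5'-biotin/3'-phosphotyrosine-FITC DNA substrate added for 5 min at room temperature. AlphaScreen beads (10 ug/ml) added for 10 min; cleavage gives signal loss.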

[2] = molecular target: Vitamin D3 receptor (Homo sapiens) (UniProt P11473); assay: qHTS for Inhibitors of the vitamin D receptor (VDR): Hit Validation in Primary Screen (AID 602199); conditions: VDR-coactivator inhibition assay, qHTS confirmation; further: potency means the concentration at half of the fitted maximal effect
Outline: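 Fluorescence polarization (Ex 620/Em 688 nm) of Alexa 647-SRC2-3 peptide with 800 nM VDR and 5 uM LG19078. Compounds at several concentrations, 2 h at room temperature.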

[3] = molecular target: Vitamin D3 receptor (Homo sapiens) (UniProt P11473); assay: qHTS for Inhibitors of the vitamin D receptor (VDR): Hit Validation using a Fluorescein Assay (AID 602200); conditions: VDR-coactivator binding, fluorescein fluorescence polarization; series mostly up to 57.1 µM; further: potency means the concentration at half of the fitted maximal effect
Outline: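 Fluorescence polarization: 1.5 uM VDR-LBD, 5 uM LG19078 and 5 nM fluorescein-labeled SRC2-3 peptide (final) with compounds, 2 h at room temperature. Read at Ex 495/Em 520 nm; peptide-only wells served as control.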

[4] = qHTS for Inhibitors of the vitamin D receptor (VDR): Hit Validation using a Texas Red Assay (AID 602201); conditions: VDR coregulator binding, Texas Red fluorescence polarization; series mostly up to 57.1 µM
Outline: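 Fluorescence polarization with 1.5 uM VDR-LBD, LG19078 and 7 nM Texas Red (final). After 2 hours at ambient temperature, read at Ex 595 nm/Em 615 nm.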

[5] = molecular target: Vitamin D3 receptor (Homo sapiens) (UniProt P11473); assay: qHTS for Inhibitors of the vitamin D receptor (VDR): Hit Validation using a Beta-Lactamase Assay (AID 602202); conditions: VDR beta-lactamase reporter cells, FRET ratio; series mostly up to 46.1 µM
Outline: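 Stably transfected HEK293 cells expressing VDR-GAL4 DNA-binding domain fusion with UAS-driven beta-lactamase reporter, activated by agonist LG190178; compounds incubated 18 h, then FRET beta-lactam substrate 2 h; cleaved substrate read at 447 nm emission.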

[6] = molecular target: DNA polymerase eta (Homo sapiens) (UniProt Q9Y253); assay: qHTS for Inhibitors of Polymerase Eta: Confirmatory Assay for Cherry-picked Compounds (AID 720502); conditions: Pol eta primer extension, TAMRA/BHQ fluorescence, 10 min; further: potency means the concentration at half of the fitted maximal effect
Outline: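 The reaction starts with 50 nM final labeled DNA substrate added to Pol eta (10 nM) that had sat with compound for 15 min. TAMRA emission at 598 nm is read at 0 and 10 min.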

[7] = Validation screen for inhibitors of Lassa infection (AID 463096; calls by dose curve; further: potency means the concentration at half of the fitted maximal effect); conditions: Lassa virus infection, cell-based; series mostly up to 46.1 µM
[8] = molecular target: ATP-dependent 6-phosphofructokinase (Trypanosoma brucei brucei) (UniProt O15648); assay: qHTS Validation Assay to Find Inhibitors of T. brucei phosphofructokinase (AID 485368); further: potency means the concentration at half of the fitted maximal effect; conditions: T. brucei PFK enzyme assay, qHTS 7-point titration; series mostly up to 57.5 µM
Outline: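 Activity was read as ADP production by luminescence (ADP-Glo) after 45 min at room temperature. The enzyme was 1.25nM PFK in 0.1M TEA pH 8.0 with 0.5 mM F6P, 0.1mM ATP and 5 mM MgCl2. Compounds were titrated up to 57 uM and % activity normalized to no-enzyme and full-enzyme controls.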

[9] = molecular target: Thioredoxin reductase 1, cytoplasmic (Rattus norvegicus) (UniProt O89049); assay: qHTS Assay for Inhibitors of Mammalian Selenoprotein Thioredoxin Reductase 1 (TrxR1) (AID 488773); conditions: purified TrxR1 enzyme activity; Potency: inhibition; series mostly up to 57.1 µM; further: potency means the concentration at half of the fitted maximal effect; nearly all actives have a fitted effect of over 40% in size
Outline: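 Steps: enzyme (90 nM) plus NADPH (400 uM final), 5 min at ~22 deg C; compound added, 15 min; selenite (400 uM final) added; fluorescence followed for 8 min. Concentration-response curves derived from the normalized delta values.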

[10] = molecular target: Chromobox protein homolog 1 (Homo sapiens) (UniProt P83916); assay: qHTS Validation Assay for Inhibitors of HP1-beta Chromodomain Interactions with Methylated Histone Tails (AID 488953); conditions: HP1-beta chromodomain / methylated histone peptide binding assay; series mostly up to 114 µM; further: potency means the concentration at half of the fitted maximal effect; nearly all actives have a fitted effect of over 50% in size
Outline: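 HP1-beta (50 nM) preformed 30 min with biotinylated H3(1-18)K9me3 peptide (50 nM) in PBS pH 7.4, 0.01% Tween-20. Compounds added for 30 min at room temperature. Complex disruption read by AlphaScreen with streptavidin donor/nickel chelate acceptor beads (10 ug/mL each).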

[11] = molecular target: ATPase family AAA domain-containing protein 5 (Homo sapiens) (UniProt Q96QE3); assay: Validation screen for small molecules that inhibit ELG1-dependent DNA repair in human embryonic kidney (HEK293T) cells expressing luciferase-tagged ELG1 (AID 493107); conditions: HEK293T ELG1-luciferase level, luminescence, 5-fluorouridine co-treatment, 16 h; series mostly up to 46.1 µM; further: potency means the concentration at half of the fitted maximal effect; nearly all actives have a fitted effect of over 70% in size
Outline: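 HEK293T cells expressing luciferase-tagged ELG1, 2,000 per well, treated with 5-fluorouridine plus compound for 16 h at 37 C. ONE-Glo luminescence after 30 min at room temperature reports ELG1 reporter level.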

[12] = molecular target: Ubiquitin carboxyl-terminal hydrolase 1 (Homo sapiens) (UniProt O94782); assay: Inhibitors of USP1/UAF1: Pilot qHTS (AID 504865); conditions: purified USP1/UAF1, Ub-rhodamine cleavage fluorescence; series mostly up to 114 µM;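 further: rhodamine fluorescence freed from ubiquitin-rhodamine substrate followed over time; potency means the concentration at half of the fitted maximal effect; nearly all actives have a fitted effect of over 35% in size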
Outline: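 Deubiquitinase activity followed as kinetic rhodamine fluorescence release from 150 nM Ub-Rho. 1 nM USP1/UAF1 with compound, after 15 min room-temperature preincubation, in HEPES pH 7.8 buffer containing TCEP, EDTA, BSA and Tween-20.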

[13] = qHTS Assay for Identifying Gametocytocidal Compounds (AID 743244); further: potency means the concentration at half of the fitted maximal effect; conditions: P. falciparum 3D7 stage III-V gametocytes, alamarBlue, 72 h; max response: stronger effect = lower value
Outline: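 Using 20,000 stage III–V 3D7 gametocytes per well, compounds were incubated 72 h under 37 °C/5% CO2. Viability was then assessed by 24 h alamarBlue reduction, measured fluorometrically at 525/598 nm.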

[14] = Nrf2 qHTS screen for inhibitors: Validation (AID 493153; active means well fitted inhibition curve with a large enough effect in the main read-out, with a control signal flat, not every such curve was filed as active; inconclusive means small, poorly fitted or top-dose-only effect, or effect the other way, or a change in a side signal; inactive means no such curve, though single readings can be large or run the other way; further: potency means the concentration at half of the fitted maximal effect); conditions: A549 ARE-Fluc reporter, luciferase luminescence, 18-24 h; series mostly up to 46.1 µM
Outline: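 A549 cells carrying ARE-firefly luciferase reporter, 5000 cells/well in 5% FBS OPTI-MEM, treated with compound over a concentration series for 18-24 h at 37 C. Luciferase luminescence gave Nrf2 activity; CellTiter-Fluor fluorescence gave viability.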

[15] = qHTS assay for small molecule agonists of the antioxidant response element (ARE) signaling pathway (AID 651741; active means well fitted activation curve with a large enough effect in the signal ratio; inconclusive means small, poorly fitted or top-dose-only effect, or effect the other way, or a change in a side signal; the % refers to the signal ratio; further: potency means the concentration at half of the fitted maximal effect); conditions: HepG2 ARE-bla reporter, beta-lactamase FRET ratio, 16 h; series mostly up to 96 µM
Outline: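 CellSensor ARE-bla HepG2 cells (2,000/well) carrying ARE-driven beta-lactamase, exposed 16 h at 37 C. LiveBLAzer B/G FRET substrate added for 2 h at room temperature; fluorescence intensity read.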
Tags describe the fitted curve by direction and shape.

Chain of UniProt Q9NUW8 (Q9NUW8 whole entry, looked up): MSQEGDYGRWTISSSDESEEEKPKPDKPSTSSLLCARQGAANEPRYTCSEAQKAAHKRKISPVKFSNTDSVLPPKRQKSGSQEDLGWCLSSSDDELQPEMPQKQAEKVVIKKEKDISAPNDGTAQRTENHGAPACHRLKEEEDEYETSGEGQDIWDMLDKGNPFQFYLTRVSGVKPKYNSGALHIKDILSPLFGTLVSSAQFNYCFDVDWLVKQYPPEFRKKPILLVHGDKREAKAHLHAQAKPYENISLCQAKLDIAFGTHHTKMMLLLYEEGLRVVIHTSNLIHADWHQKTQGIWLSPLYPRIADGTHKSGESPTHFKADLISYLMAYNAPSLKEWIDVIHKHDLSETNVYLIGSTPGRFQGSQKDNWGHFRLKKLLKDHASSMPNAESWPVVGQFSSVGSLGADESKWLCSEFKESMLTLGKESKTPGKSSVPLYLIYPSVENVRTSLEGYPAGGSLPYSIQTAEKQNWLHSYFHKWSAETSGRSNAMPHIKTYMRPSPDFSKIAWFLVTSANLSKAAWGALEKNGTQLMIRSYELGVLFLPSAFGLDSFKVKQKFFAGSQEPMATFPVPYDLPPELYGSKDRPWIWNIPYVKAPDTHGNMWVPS
Chain of UniProt P11473 (P11473 whole entry, looked up, the tested form may be a part): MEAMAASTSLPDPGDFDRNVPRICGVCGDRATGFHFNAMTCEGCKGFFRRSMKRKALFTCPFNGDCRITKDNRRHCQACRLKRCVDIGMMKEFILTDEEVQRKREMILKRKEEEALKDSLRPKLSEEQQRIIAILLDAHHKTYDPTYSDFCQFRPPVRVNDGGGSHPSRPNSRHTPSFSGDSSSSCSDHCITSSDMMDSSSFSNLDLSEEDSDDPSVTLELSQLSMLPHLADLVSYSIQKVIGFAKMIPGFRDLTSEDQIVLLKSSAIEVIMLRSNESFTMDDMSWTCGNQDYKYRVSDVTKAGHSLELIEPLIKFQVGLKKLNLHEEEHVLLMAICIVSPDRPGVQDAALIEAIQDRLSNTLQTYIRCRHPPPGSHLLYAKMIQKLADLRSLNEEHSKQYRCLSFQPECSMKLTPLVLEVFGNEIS
Chain of UniProt O15648 (O15648 whole entry, looked up): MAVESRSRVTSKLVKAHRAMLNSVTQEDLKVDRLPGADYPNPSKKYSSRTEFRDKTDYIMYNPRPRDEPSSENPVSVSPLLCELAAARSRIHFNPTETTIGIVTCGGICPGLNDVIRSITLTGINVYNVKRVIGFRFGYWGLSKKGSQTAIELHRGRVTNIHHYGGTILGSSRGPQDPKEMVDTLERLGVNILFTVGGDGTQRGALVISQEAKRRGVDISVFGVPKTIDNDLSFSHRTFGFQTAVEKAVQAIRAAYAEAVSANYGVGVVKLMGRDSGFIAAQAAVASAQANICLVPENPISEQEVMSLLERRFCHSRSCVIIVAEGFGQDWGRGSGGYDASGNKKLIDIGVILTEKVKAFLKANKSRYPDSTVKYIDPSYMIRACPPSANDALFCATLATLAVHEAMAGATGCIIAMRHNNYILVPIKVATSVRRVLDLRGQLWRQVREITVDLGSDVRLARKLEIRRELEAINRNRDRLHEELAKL
Chain of UniProt O94782 (O94782 whole entry, looked up): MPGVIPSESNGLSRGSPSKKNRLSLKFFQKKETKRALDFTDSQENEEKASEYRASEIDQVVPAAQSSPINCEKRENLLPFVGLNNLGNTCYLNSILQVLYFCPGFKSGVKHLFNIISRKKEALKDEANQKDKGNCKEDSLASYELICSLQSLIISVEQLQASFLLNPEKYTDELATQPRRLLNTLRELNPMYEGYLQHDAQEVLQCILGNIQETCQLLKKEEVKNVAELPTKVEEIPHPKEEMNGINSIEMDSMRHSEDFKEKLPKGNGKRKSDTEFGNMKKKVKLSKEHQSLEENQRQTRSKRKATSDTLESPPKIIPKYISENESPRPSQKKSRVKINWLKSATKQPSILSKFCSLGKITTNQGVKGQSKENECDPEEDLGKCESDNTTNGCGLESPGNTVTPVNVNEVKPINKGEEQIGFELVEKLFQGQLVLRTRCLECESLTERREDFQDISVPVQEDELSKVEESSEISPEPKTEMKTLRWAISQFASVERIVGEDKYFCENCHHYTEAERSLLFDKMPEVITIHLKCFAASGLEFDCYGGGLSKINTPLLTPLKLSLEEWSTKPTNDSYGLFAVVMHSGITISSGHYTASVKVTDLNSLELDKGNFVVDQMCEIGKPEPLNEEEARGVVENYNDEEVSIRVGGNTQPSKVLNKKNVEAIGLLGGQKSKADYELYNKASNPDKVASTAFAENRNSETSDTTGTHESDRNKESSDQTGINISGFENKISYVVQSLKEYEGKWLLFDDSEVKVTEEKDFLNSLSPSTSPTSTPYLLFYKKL
Chain of UniProt Q9Y253 (Q9Y253 whole entry, looked up): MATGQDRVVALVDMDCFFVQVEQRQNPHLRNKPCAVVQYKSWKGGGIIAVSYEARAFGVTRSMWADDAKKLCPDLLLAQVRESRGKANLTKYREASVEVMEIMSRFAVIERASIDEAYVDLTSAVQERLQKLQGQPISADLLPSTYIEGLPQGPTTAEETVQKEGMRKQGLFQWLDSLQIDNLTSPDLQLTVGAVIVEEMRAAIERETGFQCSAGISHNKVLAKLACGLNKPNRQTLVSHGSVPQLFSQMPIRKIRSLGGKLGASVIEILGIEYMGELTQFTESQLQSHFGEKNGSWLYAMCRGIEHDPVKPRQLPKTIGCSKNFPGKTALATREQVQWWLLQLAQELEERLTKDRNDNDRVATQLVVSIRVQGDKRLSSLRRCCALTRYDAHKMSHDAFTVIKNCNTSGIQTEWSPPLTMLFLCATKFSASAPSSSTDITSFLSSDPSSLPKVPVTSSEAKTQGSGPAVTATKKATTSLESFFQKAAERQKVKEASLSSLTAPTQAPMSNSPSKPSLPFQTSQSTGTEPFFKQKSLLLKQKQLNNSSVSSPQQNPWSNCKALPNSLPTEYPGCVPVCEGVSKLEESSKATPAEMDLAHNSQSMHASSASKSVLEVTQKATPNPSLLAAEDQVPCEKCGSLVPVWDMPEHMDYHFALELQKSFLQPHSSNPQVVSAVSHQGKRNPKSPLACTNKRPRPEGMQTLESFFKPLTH
Chain of UniProt O89049 (O89049 whole entry, looked up): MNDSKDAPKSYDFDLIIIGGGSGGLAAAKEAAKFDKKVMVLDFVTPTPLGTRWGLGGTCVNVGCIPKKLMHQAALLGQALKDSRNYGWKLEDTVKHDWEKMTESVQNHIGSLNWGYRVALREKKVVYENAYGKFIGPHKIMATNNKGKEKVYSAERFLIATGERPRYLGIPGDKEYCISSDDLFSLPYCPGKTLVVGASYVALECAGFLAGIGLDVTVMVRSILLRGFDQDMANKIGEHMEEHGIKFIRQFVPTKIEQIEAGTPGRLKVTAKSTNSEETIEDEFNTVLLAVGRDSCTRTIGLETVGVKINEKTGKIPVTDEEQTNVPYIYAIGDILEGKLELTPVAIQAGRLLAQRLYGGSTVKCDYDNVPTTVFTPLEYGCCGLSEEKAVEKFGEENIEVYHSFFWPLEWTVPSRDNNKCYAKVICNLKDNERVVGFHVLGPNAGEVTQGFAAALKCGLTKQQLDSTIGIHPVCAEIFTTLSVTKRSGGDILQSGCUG
Chain of UniProt P83916 (P83916 whole entry, looked up): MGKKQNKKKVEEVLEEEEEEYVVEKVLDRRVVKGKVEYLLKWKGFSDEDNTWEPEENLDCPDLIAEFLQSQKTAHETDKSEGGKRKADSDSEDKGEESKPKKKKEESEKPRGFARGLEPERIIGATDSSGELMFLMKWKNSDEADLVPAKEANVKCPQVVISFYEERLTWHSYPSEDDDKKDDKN

O=C(O)CCC(=O)NCCC1=c2ccccc2=N/C1=C\c1c(O)n(Cc2ccc(F)cc2)c(=S)[nH]c1=O
Potency [1]: inconclusive [inhibitor, full curve] | Potency [2]: active: 5.97 µM | Potency [3]: inconclusive [inhibitor, partial curve, poor fit] | Potency [4]: inactive | Potency [5]: inactive | Potency [6]: inconclusive [inhibitor, single point]

Nc1ccc2c3c(cccc13)C(=O)NC2=O
Potency [7]: inconclusive [inhibitor, single point]

O=C1NC(=O)C(=Cc2coc3ccc(O)cc3c2=O)C(=O)N1
Potency [1]: inconclusive [inhibitor, partial curve]

C[C@]12C=CC(=O)C=C1CC[C@@H]1C2=CC[C@]2(C)[C@@H](C(=O)CN3CCN(c4cc(N5CCCC5)nc(N5CCCC5)n4)CC3)CC[C@@H]12
Potency [8]: inconclusive [activator, single point] | Potency [9]: inconclusive [inhibitor, full curve, poor fit] | Potency [10]: inconclusive [inhibitor, partial curve] | Potency [11]: inconclusive [inhibitor, partial curve, poor fit] | Potency [12]: inconclusive [inhibitor, partial curve, poor fit] | Potency [13]: inconclusive [inhibitor, single point]

O=C1NC(=O)N(Cc2ccco2)C(=O)/C1=C/c1ccc(-c2cccc([N+](=O)[O-])c2)o1
Potency [1]: inconclusive [inhibitor, full curve]

CC[C@@]1(O)C(=O)OCc2c1cc1n(c2=O)Cc2cc3c(O)cccc3nc2-1
Potency [1]: inconclusive [inhibitor, single point]

O=C1NC(=S)NC(=O)C1=Cc1ccc2c(c1)CCN2CCCCl
Potency [1]: active: 2.51 µM

O=C(N[C@@H](Cc1ccccc1)C(=O)CCl)OCc1ccccc1
Potency [7]: active: 6.31 µM

CC(=O)[C@@]1(O)CC[C@H]2[C@@H]3CCC4=CC(=O)CC[C@]4(C)[C@H]3CC[C@@]21C
Potency [8]: inconclusive [falling, single point] | Potency [14]: inconclusive [inhibitor, partial curve, poor fit] | Potency [15]: inconclusive [activator, partial curve, poor fit]
